In all, about 33,000 sequences were measured (“E-score (-0.5 to 0.5)”: median about -0.01, highest 2% from about 0.26 on). This is one part of the list.
Each sequence was assayed against Ste12 (UniProt P13574) (assay: PBM E-score (8-mer binding enrichment) (E-score (-0.5 to 0.5)); higher = stronger / more preferred TF binding; most listed sequences are background and not binding sites). Conditions: protein concentration: 200 nM; construct: GST-DNA-binding domain.
Method in brief: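 For each ungapped eight-base word taken together with its reverse complement, the Universal PBM Analysis Suite assigned an E-score. Binding data came from GST-tagged yeast transcription factors, applied at about 100-200 nM, on universal all-10-mer Agilent arrays made double-stranded by primer extension. Fluorescent anti-GST marked bound protein, and scans were normalised with masliner.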

Sequence | PBM E-score
CTCGTCAC | 0.132
GATCACAA | -0.0682
ATATACAA | 0.216
TATCAAAA | 0.302
CGTTGTAA | 0.0721
GTAAGATA | 0.0449
ACCCTGGC | -0.196
ATATGGTA | -0.0251
AACGTAGT | -0.0284
CACATTGA | 0.0403
GCTAAGCA | -0.163
GGACGAAC | 0.0407
CCGAATAC | 0.153
AAATAATG | 0.135
AAGATCTG | -0.0104
CTCCCAAA | 0.0593
CGCATCAA | 0.19
AAAATGGT | 0.182
AAACAAAC | 0.263
AACAAGGG | -0.0931
ATATTTCA | 0.139
ACCCCAAA | 0.114
CCTAAATA | 0.0919
AGCACCTC | -0.154
GGCTCATA | -0.0561

Sequence | PBM E-score
CATTCCGA | 0.152
CTGATAGC | 0.0439
GGGGCCCA | -0.0553
CAAATCAG | 0.236
TACGACGA | 0.0292
ACGGCGCT | 0.0539
ACTTAAGG | 0.122
ATAGGTGG | -0.0442
ACTCAACG | -0.13
ATTGACCC | -0.121
TATCGGGA | 0.136
AGTTAGTG | 0.0205
AAATAGAT | 0.275
TGCCAACA | 0.0803
TATCCATA | 0.0618
CCTGCAGC | -0.074
CCGTTACA | 0.318
GCCGCATA | 0.0504
AAACCGTG | -0.0313
ACTTTTGG | 0.083
CCGAAATA | 0.163
CCTGTTTC | 0.32
ATTGAAAG | 0.0623
AGCAGTCA | -0.0532
TTATAGAA | 0.0807

Sequence | PBM E-score
CGCCACAG | -0.102
AGGCCCAA | -0.0418
AAATACCG | 0.0621
CACGTCCC | -0.231
AGGTTGAA | 0.055
AAGAGCTG | -0.158
TGTAGGAA | 0.0271
ATGTCCTA | -0.138
ACATCCCT | -0.0649
AAACCAGC | 0.0805
GAAGTGGA | 0.0958
TAGCGGCA | -0.033
GGGAGGAA | 0.0149
CTCGTAGA | -0.197
AGCTTACA | -0.049
CGATTCCG | -0.103
ACATCATC | 0.0527
CTGGGTGC | -0.0683
GGCCAATA | 0.0845
AAACTATC | 0.033
CTCTATAA | 0.0733
ATAAGCAC | -0.0531
CATATAGG | -0.0995
TACTGACA | 0.0473
ACTGTGAT | -0.0243

Sequence | PBM E-score
ACCGGCGA | 0.199
CTGACTAC | -0.129
ACTAAACG | -0.0755
GTACGCCA | -0.014
GAAGATGA | -0.107
ACCGTACA | -0.0112
GAGAGCTA | -0.0899
AACGACGA | 0.0658
GTCCCTTA | 0.11
ATTGGCCA | -0.216
TGGTGCAA | -0.18
ATGAATGA | 0.192
GGAAAGCC | 0.00426
CCCATGAG | -0.0476
CGGTCTTC | 0.0919
GTGATCGA | 0.161
GGAGTATA | -0.00182
GACCTCCA | -0.045
TCCGGCGA | -0.0324
CCGGACAA | -0.0587
AACGCGGC | -0.0365
GTTCTGGA | 0.00683
ACACAACA | 0.0034
AATGTTTC | 0.318
AATGGATG | -0.00858

Sequence | PBM E-score
ACAGGTAA | -0.0912
AATTTGGT | 0.144
ATGCTCCG | -0.0268
ACCACCCA | 0.116
AGACTTAC | -0.16
TCCCGAAA | 0.211
AGTGGTAT | -0.0443
AATCGCCA | -0.14
TCAAGGAA | -0.0777
AAGAGTGC | 0.00189
ACAAGTAT | 0.0702
GGAGTCTA | -0.165
ATCCTTAA | 0.0034
AAGTAAGC | -0.118
CCGAGGTC | -0.211
TCTCCTCA | -0.17
TACGAGTA | 0.0477
GCCTAAGA | -0.152
GAGTCCGA | 0.0501
GTGACTAA | 0.0255
ACCCACGA | -0.00878
GAGGCTGA | -0.0548
ATATCTCA | 0.151
GGCGAGTA | 0.19
ATTATTTG | 0.106

Sequence | PBM E-score
ACCTTTCG | -0.115
CTCGTCCC | -0.0727
CTCCAGCC | -0.232
ATCACCCG | -0.015
CGATTGGC | -0.094
CTTCCCAA | 0.0485
GATATAAC | 0.0323
GTGGGGGA | -0.0367
ACATAGCT | -0.269
ATTCTGTC | 0.101
CGCTTTAA | -0.101
AATGTCAC | -0.0144
GTCTCTGA | -0.168
ACAACCGT | -0.0961
GAGAGACC | -0.117
ACTCGAAA | 0.15
ACGTCCGC | -0.117
TACATCTA | 0.114
ACGAGTCG | -0.107
CGAAGGAG | -0.0964
CGTAACAA | 0.293
ATAAACTA | 0.211
ACAACCTA | 0.035
ACATGGCC | -0.013
TTGACCAA | 0.104

Sequence | PBM E-score
ACTTGACA | 0.087
CTCTTTAC | 0.0191
CAAGCGGC | 0.209
GACGCGGC | 0.0612
ACTACGGC | -0.121
CGACGTTA | 0.037
ACCATTAG | -0.0902
GTAATACA | 0.0171
ATATTGAC | 0.0234
AAGCCCCT | -0.169
TCACTTAA | 0.191
GGAATACC | -0.109
AGAAAACC | 0.199
GCTATTAA | 0.148
CCCGGTCA | -0.0347
GCACATGA | -0.101
GTTGTCAA | 0.0137
CTATAGCC | -0.344
CGGTGCAC | 0.0133
ACTATTCA | 0.0608
CCGTATAC | -0.0202
CCGAGACA | -0.0765

From the supplement of paper PMC3334620
